The full ranking holds about 33,000 sequences; the median of “E-score (dimensionless, -0.5 to 0.5)” is about -0.058, and the highest 2% start at about 0.35. Some of the results follow.
What follows are sequences tested on MvaT (assay: PBM 8-mer E-score (mean of HK and ME arrays) (E-score (dimensionless, -0.5 to 0.5)); higher = stronger relative binding preference; most listed sequences are background and not binding sites).
In short: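 Full-length P. aeruginosa MvaT carrying an N-terminal glutathione S-transferase tag was tested by protein binding microarray following a previously described protocol. Two universal double-stranded 60-mer arrays, ME and HK, were used, each with a constant 25-mer primer region and a variable 35-mer region covering all 8-mers. The rank-based E-score is the mean of the two arrays, parsed with a custom script. Its range runs from -0.5 to 0.5 for each 8-mer.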

In order of rising “PBM 8-mer E-score” value:
1. GGAGGACC  -0.423
2. CCCGTAGG  -0.317
3. AGAGCCCT  -0.307
4. CTAGGTCC  -0.307
5. CCCAGATC  -0.287
6. CTGGCCTA  -0.287
7. ACGCAGGC  -0.282
8. ACCTGGAC  -0.271
9. CCAAGGGA  -0.26
10. CGGCGAGC  -0.26
11. GAAGCTGC  -0.257
12. CTGACCGC  -0.252
13. GGGTGCCA  -0.248
14. AAGGCTCA  -0.247
15. GCAGCTGA  -0.247
16. AGCTACGC  -0.246
17. GCCATTGA  -0.243
18. ATGGCCCG  -0.241
19. AGGGGTCA  -0.239
20. CGACTGCC  -0.236
21. TGCTCCCA  -0.228
22. GGGAACCA  -0.227
23. AACCGCCC  -0.224
24. CGAAGGCA  -0.222
25. CCTTTCGA  -0.222
26. CACTGGGG  -0.22
27. GAAAGGCC  -0.217
28. AGCGGGGG  -0.216
29. AGCCAAGC  -0.216
30. GACAGGGA  -0.215
31. CACGGCTA  -0.21
32. AGCAGCCG  -0.209
33. ACACCAAG  -0.207
34. AGGTGACC  -0.205
35. CGCTCCCA  -0.205
36. GGGGACTA  -0.199
37. CAGAGGAC  -0.198
38. GACTGCCC  -0.198
39. ACTGGGAG  -0.198
40. AAGCGGCT  -0.196
41. GCTCTCAA  -0.196
42. AGCCACCG  -0.196
43. CGAGCTGA  -0.193
44. CCTTTGAC  -0.19
45. CTCTTGGC  -0.19
46. ATAGCCGG  -0.189
47. CCTGCAAG  -0.189
48. GATGGAGC  -0.184
49. CAGGCGAA  -0.184
50. GAAAGCAC  -0.183
51. GCTAAGGA  -0.182
52. CTGGCTTC  -0.179
53. AGCGGGAC  -0.179
54. CCACTGGC  -0.179
55. CCGGAGAC  -0.175
56. AGGCATTG  -0.173
57. GGTAGTCA  -0.169
58. ACATGGGT  -0.168
59. ACGCCTCG  -0.166
60. ACAGGACA  -0.165
61. GGACACTA  -0.164
62. TATGGGGA  -0.154
63. CGCGTCAC  -0.153
64. AATCGGAG  -0.15
65. ACGGATCT  -0.149
66. AAGGACGT  -0.149
67. ACCCGCCG  -0.149
68. GGCACCCA  -0.148
69. GATTCCCC  -0.148
70. GTGGGCGA  -0.144
71. CTATCGTC  -0.143
72. CACGGCGA  -0.143
73. AGGGCTAA  -0.142
74. CCTGCAGA  -0.14
75. GCGACAGA  -0.133
76. CCTGAAGC  -0.132
77. ACCGACGC  -0.13
78. CTTCTCTC  -0.128
79. TCAGCCAA  -0.127
80. CGGTACCA  -0.127
81. AGGCACTG  -0.124
82. AATCGAGC  -0.121
83. GACCTTCA  -0.12
84. GGTGTTCA  -0.119
85. ACGAACGC  -0.117
86. GCAGTGGA  -0.107
87. CTCACCGA  -0.102
88. GCTGACAC  -0.102
89. CTGGTACA  -0.102
90. ACAAGGGT  -0.0998
91. TCATAGGA  -0.0968
92. ACAGCTCG  -0.0961
93. GTACCTAC  -0.0955
94. CCTCCATA  -0.0947
95. CCGCGTAC  -0.0945
96. GGAACTCA  -0.0926
97. AAGGATAG  -0.0902
98. AGACTAGC  -0.0886
99. CTGACGGA  -0.0885
100. AAGCCGCA  -0.0885
101. CTTTACGA  -0.0864
102. ATCACCAG  -0.0845
103. ACATGCCG  -0.084
104. GACTAGGA  -0.0815
105. CGAAGTAG  -0.0784
106. CTAGCCAC  -0.0783
107. ACAGGCGA  -0.0735
108. ATTTCAGG  -0.0723
109. ATACCCGG  -0.0701
110. TCGGACCA  -0.0698
111. CACAATGC  -0.0696
112. GAAGTCGA  -0.0693
113. TCCTGGAA  -0.0682
114. CTACAAAA  -0.0651
115. ACATCATG  -0.0644
116. GAGCAACA  -0.0635
117. ACACCCAA  -0.0593
118. GCGTCGTA  -0.0541
119. CTAGCGTA  -0.0493
120. AAGTCCTG  -0.047
121. CAAGAGTC  -0.0464
122. ACGAGAGC  -0.0464
123. CATTCGTA  -0.0444
124. CGATCAAG  -0.0412
125. ATAGCAGA  -0.0387
126. CCTTCACA  -0.0342
127. CGCACTGA  -0.0326
128. CGACAGCG  -0.032
129. CGAGTTAG  -0.0256
130. CAAAACTG  -0.0206
131. CGAAGACA  -0.0154
132. CTATGACC  -0.0108
133. AGTTCTTC  -0.0102
134. ATCTTTTG  -0.00788
135. TAAGGTGA  -0.00551
136. TAGCGCTA  -0.00506
137. GAACACCC  -0.00413
138. GCGCTTTA  -0.00157
139. ACGTTAGG  0.001
140. CAAGACAA  0.0048
141. AACGCGCT  0.0074
142. AAGGCTAA  0.00985
143. ATAGAACC  0.0137
144. CTACACAA  0.0154
145. ACTACTCC  0.0169
146. ACAGACCA  0.0186
147. AGAATGCG  0.0191
148. TGATGGAA  0.0193
149. AAGTGACC  0.02
150. AAAAAGGA  0.0202
151. AGTAGCAC  0.0248
152. ATGAATCG  0.0269
153. ATCCCAAC  0.0284
154. GATTACGA  0.0299
155. ACTACACG  0.0312
156. ACTAGCTA  0.0346
157. CCCACACC  0.0355
158. TCATGGAA  0.0365
159. ATCGGTAC  0.0402
160. GCATAACC  0.0428
161. CTTAGCTA  0.0437
162. CTAGATAC  0.0488
163. AGCAGCAT  0.0492
164. CAGACAAA  0.0494
165. ACCTGTTA  0.0504
166. GCGAGATA  0.0541
167. ACTTTTGC  0.0662
168. ACATTCTG  0.0683
169. AAAGCGTT  0.0685
170. GCGTTGTA  0.0698
171. CCTAACTA  0.0781
172. ATGGAAAC  0.0811
173. AATGTGAG  0.0855
174. CCATGAAA  0.0879
175. CGCTTCAA  0.0896
176. ACGAAAAC  0.09
177. CTAGTAAA  0.0929
178. AACTATCG  0.0977
179. ATCATAGA  0.1
180. GTATTCGA  0.101
181. ATCTCGCA  0.101
182. ATGGTTTG  0.101
183. AGTAAAGA  0.112
184. ATGTTGGC  0.12
185. AGTATCGA  0.12
186. AACTGTTG  0.123
187. CGCGGATA  0.125
188. AATCTTTG  0.127
189. AAGTTGCT  0.128
190. ATGTCACA  0.13
191. AACTTCTG  0.131
192. CAAAACAG  0.131
193. TACTCTAA  0.136
194. TATTGGGA  0.139
195. TGACGGAA  0.141
196. ACACTTAG  0.149
197. ACTGAAAA  0.15
198. AAAGTCGT  0.155
199. TTGTACAA  0.161
200. TAAAGAAA  0.182
201. AGGTAAAA  0.196
202. GCAAATTA  0.199
203. GCGATAAA  0.203
204. TACGAATA  0.204
205. AAGACTAA  0.208
206. AGATTTTA  0.211
207. AAGTTGCC  0.22
208. TGTTAAAA  0.25
209. GTTTGTAA  0.261
210. AATTTATC  0.276
211. ATTAAACG  0.284
212. GATGTATA  0.289
213. GTTTAAAA  0.293
214. AGTTACTA  0.3
215. CCAACTTA  0.308
216. AATAGTAA  0.338
217. AAAACTAT  0.344
218. ACTAGTAT  0.357
219. ATATTAAA  0.466

Reference: the supplement of paper PMC4466236
